Experimental data reported in the supplement of paper PMC9446081.
About 220 (0.56%) of roughly 39,000 compounds showed activity. The list shows a part of the results.

tested on: Escherichia coli K-12 BW25113; assay: relative growth (OD600 normalised to plate interquartile mean) (fraction); higher = less growth inhibition, active = 0.2 or less; conditions: 50 µM; LB; incubation time: overnight (16-24 h)
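Also: static incubation at 37 °C against the wild-type strain, values averaged over two biological replicates.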

Row | SMILES | relative growth
1 | C[C@@H]1CCCCO[C@H](CN(C)C)[C@@H](C)CN([C@H](C)CO)C(=O)c2cc(NS(=O)(=O)c3cn(C)cn3)ccc2O1 | inactive: 0.968
2 | C[C@@H]1CN([C@H](C)CO)C(=O)c2cc(NC(=O)Nc3ccc(C(F)(F)F)cc3)ccc2O[C@@H](C)CCCCO[C@@H]1CN(C)C(=O)CCCN(C)C | inactive: 0.938
3 | COc1ccc(S(=O)(=O)Nc2ccc3c(c2)C(=O)N([C@@H](C)CO)C[C@H](C)[C@@H](CN(C)S(=O)(=O)c2ccc(C)cc2)O3)cc1 | inactive: 1
4 | CS(=O)(=O)Nc1ccc2c(c1)[C@H]1C[C@@H](CC(=O)NCc3ccc(-c4ccccc4)cc3)O[C@H](CO)[C@H]1O2 | inactive: 1.02
5 | C[C@H]1CCCCO[C@H](CN(C)C(=O)Nc2ccc(F)cc2)[C@@H](C)CN([C@@H](C)CO)C(=O)c2cc(NC(=O)Nc3cccc4ccccc34)ccc2O1 | inactive: 1
6 | C[C@@H]1CN([C@H](C)CO)C(=O)c2cccc(NS(=O)(=O)c3cn(C)cn3)c2O[C@@H]1CN(C)C(=O)Nc1ccc(F)cc1 | inactive: 0.98
7 | O=C(CCCCCCC(=O)N/N=C/[C@@H](O)[C@@H](O)[C@H](O)[C@H](O)CO)NO | inactive: 1
8 | Cc1cc(C(=O)Nc2cccc3c2O[C@H](CN(C)S(=O)(=O)c2cn(C)cn2)[C@H](C)CN([C@H](C)CO)C3=O)n(C)n1 | inactive: 1.01
9 | C[C@H]1CN([C@@H](C)CO)C(=O)Cc2cc(NS(=O)(=O)c3ccc(F)cc3)ccc2O[C@H]1CN(C)Cc1ccc(Cl)c(Cl)c1 | inactive: 0.995
10 | C[C@@H]1CN([C@H](C)CO)C(=O)c2cc(NC(=O)Nc3ccccc3)ccc2O[C@H]1CN(C)Cc1ccc(Oc2ccccc2)cc1 | inactive: 1.08
11 | NC(=O)c1cccc(N)c1 | inactive: 0.807
12 | C[C@H](CO)N1C[C@H](C)[C@@H](CN(C)C(=O)Nc2ccc3c(c2)OCO3)OCc2cnnn2CCCC1=O | inactive: 0.998
13 | CN(C)Cc1cn(CC[C@H]2CC[C@H](NC(=O)Cc3cccnc3)[C@H](CO)O2)nn1 | inactive: 1.01
14 | COc1ccc(S(=O)(=O)N(C)C[C@@H]2Oc3c(NS(=O)(=O)c4ccccc4)cccc3C(=O)N([C@@H](C)CO)C[C@@H]2C)cc1 | inactive: 0.99
15 | C[C@H]1CCCCO[C@H](CN(C)C(=O)Nc2cccc3ccccc23)[C@@H](C)CN([C@@H](C)CO)C(=O)c2cc(NC(=O)c3ccncc3)ccc2O1 | inactive: 0.957
16 | COC[C@@H]1CNN1C(=O)c1cc(C)oc1C | inactive: 0.8
17 | Cc1ccc(S(=O)(=O)Nc2ccc3c(c2)C(=O)N([C@H](C)CO)C[C@@H](C)[C@@H](CN(C)C(=O)NC2CCCCC2)OCCCC[C@H](C)O3)cc1 | inactive: 1.03
18 | CN(C)CCCNC(=O)C[C@H]1CC[C@@H]2[C@@H](COc3ccc(NC(=O)NC4CCCC4)cc3C(=O)N2C)O1 | inactive: 0.983
19 | CCn1nc(C)c([C@@H](C)N)c1C | inactive: 0.992
20 | C[C@@H]1CN([C@H](C)CO)S(=O)(=O)c2ccc(C3=CCCCC3)cc2O[C@H]1CN(C)Cc1cncnc1 | inactive: 1.01

Row | SMILES | relative growth
21 | NNC(=S)Nc1cccc(F)c1 | inactive: 0.981
22 | C=CC1=C(C(=O)O)N2C(=O)[C@@H](NC(=O)/C(=N/O)c3csc(N)n3)[C@H]2SC1 | active: 0.0336
23 | C[C@H](CO)N1C[C@H](C)[C@H](CN(C)C(=O)Cc2ccccn2)Oc2ncc(C#CC3CCCCC3)cc2C1=O | inactive: 0.863
24 | C[C@H](CO)N1C[C@H](C)[C@H](CN(C)S(=O)(=O)c2ccc3ccccc3c2)OCc2cnnn2CCCC1=O | inactive: 1.04
25 | C[C@@H]1CN([C@@H](C)CO)C(=O)c2cccc(NC(=O)Nc3ccc(C(F)(F)F)cc3)c2O[C@H]1CN(C)C(=O)Nc1cccc2ccccc12 | inactive: 0.8
26 | C[C@@H]1CCCCO[C@@H](CN(C)S(=O)(=O)c2cccs2)[C@@H](C)CN([C@H](C)CO)C(=O)c2cc(NC(=O)Nc3ccc(C(F)(F)F)cc3)ccc2O1 | inactive: 0.986
27 | C[C@H]1CN([C@@H](C)CO)C(=O)c2cccc(NS(C)(=O)=O)c2O[C@H]1CN(C)S(=O)(=O)c1ccccc1 | inactive: 1.04
28 | O=C1CC[C@H](C(=O)N2CCCCC2)N1 | inactive: 0.986
29 | COc1ccc(NC(=O)Nc2ccc3c(c2)C(=O)N([C@@H](C)CO)C[C@H](C)[C@H](CN(C)C(=O)NC2CCCCC2)OCCCC[C@@H](C)O3)cc1 | inactive: 1.01
30 | Cc1ccc(S(=O)(=O)Nc2ccc3c(c2)CC(=O)N([C@@H](C)CO)C[C@H](C)[C@@H](CN(C)S(C)(=O)=O)O3)cc1 | inactive: 1
31 | C[C@H](CO)N1C[C@H](C)[C@@H](CN(C)Cc2ccc(C(=O)O)cc2)OCCCC[C@H](C)Oc2ccc(NC(=O)NC3CCCCC3)cc2C1=O | inactive: 1
32 | CNC[C@@H]1OCCCC[C@@H](C)Oc2ccc(NC(=O)c3ccncc3)cc2C(=O)N([C@@H](C)CO)C[C@H]1C | inactive: 0.977
33 | C[C@H]1CN([C@@H](C)CO)C(=O)c2cccc(NC(=O)Nc3ccc(C(F)(F)F)cc3)c2O[C@H]1CN(C)C(=O)Nc1ccccc1 | inactive: 0.9
34 | COc1ccc(NC(=O)N(C)C[C@@H]2Oc3ccc(NC(=O)CCCN(C)C)cc3CC(=O)N([C@H](C)CO)C[C@H]2C)cc1 | inactive: 0.984
35 | C[C@@H]1CN([C@H](C)CO)C(=O)Cc2cc(NC(=O)Nc3ccc(F)cc3)ccc2O[C@@H]1CN(C)Cc1ccc(Oc2ccccc2)cc1 | inactive: 1.03
36 | C#CC1(O)CCC2C3CCc4cc(O)ccc4C3CCC21C (stereo not given) | inactive: 0.817
37 | C[C@@H]1CCCCO[C@@H](CN(C)S(C)(=O)=O)[C@H](C)CN([C@@H](C)CO)C(=O)c2cc(NC(=O)Nc3ccc(C(F)(F)F)cc3)ccc2O1 | inactive: 1.02
38 | c1cc(-c2nn[nH]n2)ccc1OCc1nn[nH]n1 | inactive: 1.04
39 | CN([C@@H](Cc1ccc(OS(=O)(=O)c2cccc3cnccc23)cc1)C(=O)N1CCN(c2ccccc2)CC1)S(=O)(=O)c1cccc2cnccc12 | inactive: 0.904
40 | COc1ccc(NC(=O)N(C)C[C@H]2Oc3ccc(NC(=O)C4CC4)cc3CC(=O)N([C@H](C)CO)C[C@H]2C)cc1 | inactive: 0.968
